Molecules are shown by their SMILES. The whole screen tested about 52,000 compounds, of which about 1,700 (3.3%) were called active. Cut-off read from the data, not from the text of the source: active = survival mostly below about 52% (no sharp cut-off); inactive = mostly above about 56%. The list shows a part of the results.

The subject of the experiment is Wild type. Description: S. aureus survival, RN4220 and DeltatarO strains – OD600, teichoic acid synthesis inhibitors, primary screen (AID 463173). The note with it: S. aureus RN4220 wild type/DeltatarO growth, OD600, 18 h, active compounds read low, screened at 18.75 µg/mL (by protocol).
For `O=S1(=O)CCC(N2CCCCC2)C1` (centres undefined), the survival is inactive: 98%.
Under `Cc1ccc(NC(=O)C2CCN(c3ncccn3)CC2)cc1F` stands inactive: 92%.
Turning to `COC1=NS(=O)(=O)c2ccccc21`, the survival was inactive: 104%.
With `CCC(C(=O)N1CC2(C)CC1CC(C)(C)C2)N1C(=O)c2ccccc2C1=O` (centres undefined) the figure was inactive: 105%; with `CCOc1ccccc1NC(=O)C(C)n1nnc2sc3c(c2c1=O)CCCC3` (centres undefined), inactive: 120%; with `COc1ccc(NC(=O)CSc2nc3ccccc3n2CC(=O)Nc2cccc(C)c2C)cc1`, inactive: 136%.
With `CCn1c(CNC(=O)C23CC4CC(CC(C4)C2)C3)nnc1SCC(=O)Nc1ccc(OC)cc1` the figure was inactive: 96%.
Under `O=C(COc1cccc(Cl)c1)N1CCC(c2nc3ccccc3s2)CC1` stands inactive: 37%.
In the case of `Cc1ccc(CCNC(=O)c2ccc(Cn3c(=O)c4cccn4c4cccnc43)cc2)cc1`, the survival is inactive: 82%.
With `COc1cc(OC)c(NC(=O)Nc2sc3nc4n(c(=O)c3c2C)CCC(C)CC4)cc1Cl` (centres undefined) the figure was inactive: 87%; with `Cc1ccc(-n2c(SCC(N)=O)nc3c(oc4ccccc43)c2=O)cc1`, inactive: 65%.
For `O=S(=O)(Nc1ccc(-c2ccc(N3CCCC3)nn2)cc1)c1ccccc1Cl`, the survival was inactive: 87%.
`O=C(O)c1cccc(NC(=O)c2cccc(S(=O)(=O)Nc3cccc(F)c3)c2)c1`: the survival was inactive: 169%.
With `Cn1c(SCC(=O)N2c3ccccc3CCc3ccccc32)nnc1C1CC1` the figure was inactive: 96%; with `Cc1cc(C)cc(NC(=O)c2cc(S(=O)(=O)N3CCOCC3)cn2C)c1`, inactive: 84%; with `Cc1cccc2cc(CN(C(=O)C(F)(F)F)C3CCCC3)c3nnnn3c12`, inactive: 101%.
Under `Cc1ccc(N2CCN(c3nc4ccccc4n4nnnc34)CC2)c(C)c1` stands inactive: 85%; under `COc1cccc(C(=O)Nc2ccccc2SCc2cc(=O)c3cccc(C)c3[nH]2)c1`, inactive: 59%; under `N#Cc1c[nH]n2c(NC3CCCC3)c(-c3ccc(Br)cc3)nc12`, inactive: 84%.
Turning to `Cc1ccc(Cl)cc1N1CCN(C(=O)c2cnn(-c3ccc(Cl)cc3)c2C2CCNCC2)CC1`, the survival was inactive: 83%.
Under `CCOc1ccc(C2c3c(oc4ccccc4c3=O)C(=O)N2Cc2ccc3c(c2)OCO3)cc1` (centres undefined) stands inactive: 31%; under `Cc1ccc(Nc2c(-c3ccc(N4CCOCC4)cc3)nc3ccc(Cl)cn23)cc1`, inactive: 84%.
With `Cc1cc2c(cc1S(=O)(=O)N1CCC(C(N)=O)CC1)OCC(=O)N2` the figure was inactive: 81%.
Consider `Cc1cc(C)c(NC(=O)Cn2nnc(-c3nc(-c4ccncc4)no3)c2N)c(C)c1`, for which the survival was inactive: 71%.
Take `Cc1cccc(-c2nnn3c2nc(NCCC(C)C)c2ccccc23)c1`: the survival was inactive: 89%.
As for `N#C/C(=C\c1ccc2c(c1)OCO2)c1ccccc1`, the survival was inactive: 109%.
As for `O=C(CSc1nc2c([nH]c3ccccc32)c(=O)n1-c1cccc(C(F)(F)F)c1)N1CCCC1`, the survival is inactive: 78%.
With `CCOC(=O)c1cccc(NC(=O)C2(S(=O)(=O)c3ccc(C)cc3)CC2)c1`, the survival was inactive: 84%.
With `COc1cccc(C(=O)Nc2ccc(-c3nc4ccc(C)cc4s3)cc2)c1OC`, the survival is inactive: 22%.
Under `COc1cn(CC(=O)Nc2ccc(C)cc2C)c(CN2CCCCC2)cc1=O` stands inactive: 68%.
As to `CCn1c2ccccc2c2cc(/C=N/NC(=O)Cc3cccs3)ccc21`, the survival was inactive: 108%.
With `CC(=O)c1ccc(NC(=O)/C=C/c2ccc(C)o2)cc1` the figure was inactive: 65%; with `CCCNC(=O)C1CCC(Cn2c(=O)c3sccc3n(CC(=O)N3CCCC(C)C3)c2=O)CC1` (centres undefined), inactive: 72%; with `CCOc1cccc(C2c3c(oc4ccc(F)cc4c3=O)C(=O)N2CCOC)c1` (centres undefined), inactive: 71%.
Under `COc1ccc(S(=O)(=O)NCC(c2ccc(N(C)C)cc2)N2CCCC2)cc1F` (centres undefined) stands inactive: 73%.
Turning to `CCOc1ccc(C(=O)NC2CCN(CC(=O)NCc3ccccc3)CC2)cc1`, the survival was inactive: 104%.
Under `CC(=O)C1=C(c2ccc(C)cc2)N(C(C)=O)n2c(nnc2-c2ccccc2)S1` stands inactive: 134%; under `Cc1cccc(OCC(=O)NCC2(N3CCN(C)CC3)CCCCC2)c1`, inactive: 83%.
With `Cc1ccc(Cl)cc1N1CCN(S(=O)(=O)c2ccc3oc(=O)c4ncn(C)c4c3c2)CC1` the figure was inactive: 104%; with `CCc1ccc(OCC(=O)Nc2ccc(Cl)c(-c3nc4cc(C)cc(C)c4o3)c2)cc1`, inactive: 51%; with `Cc1ccccc1Cn1cc(NC(=O)c2cc(-c3ccc(Cl)cc3)on2)cn1`, inactive: 104%.
As for `Cc1[nH]c2ccc(C(=O)NCCc3ccccc3Cl)cc2c1C`, the survival is inactive: 86%.
With `Cc1cccc(NC(=O)CN2C(=O)COc3ccc(S(=O)(=O)Nc4ccccc4)cc32)c1C` the figure was inactive: 123%; with `S=C(Nc1ccccc1)Nc1ccccn1`, inactive: 114%; with `Cc1ccc(S(=O)(=O)c2nnn3c2nc(NCc2ccc(F)cc2)c2sccc23)cc1C`, inactive: 66%.
`CC(C)OCCCn1c(=O)c2ccccc2n2c(-c3ccc(F)c(F)c3)nnc12`: the survival is inactive: 88%.
Under `CCCS(=O)(=O)N1CC(=O)N(c2ccccc2C)C(C)(C(=O)NC2CCCCC2)C1` (centres undefined) stands inactive: 70%; under `COc1ccc(Nc2cc(C(=O)NCc3ccccc3)c3ccccc3n2)cc1`, inactive: 112%.
Take `Cc1nn(-c2ccc(N3CCCC3)nn2)c(C)c1CCC(=O)NCc1ccc(F)cc1`: the survival is inactive: 81%.
Under `CCC1CN(C(=O)N2CCC(C(=O)NCc3ccc(C)o3)CC2)c2ccccc2O1` (centres undefined) stands inactive: 87%; under `O=C(Cn1c(=O)n(Cc2ccc(F)cc2)c(=O)c2sc3ccccc3c21)NCc1ccccc1`, inactive: 88%.
As to `Cc1ccc(OCCSc2nc3ccccc3n2CC(=O)N2CCCCC2)c(C)c1`, the survival was inactive: 71%.
With `Cc1nc2ccc(S(=O)(=O)N(CC(=O)Nc3cccc(C)c3C)Cc3ccccc3)cc2s1` the figure was inactive: 70%.
With `Cc1ccc(C)c(Cn2c(C(C)NC(=O)c3ccccc3)nc3ccccc32)c1` (centres undefined) the figure was inactive: 88%; with `O=C(Cn1c(=O)oc2cc(S(=O)(=O)N3CCCC3)ccc21)Nc1ccc(OC(F)(F)F)cc1`, inactive: 85%; with `COc1ccc(-c2nc3sc(CCNC(=O)C(=O)Nc4ccc(C)cc4C)c(C)n3n2)cc1`, inactive: 82%.
Consider `Cc1ccc(NC(=O)C2CCC(CNS(=O)(=O)c3cccc4nsnc34)CC2)c(C)c1` (centres undefined), for which the survival was inactive: 81%.
With `O=C(CSC1=Nc2ccccc2C2=NC(Cc3ccccc3)C(=O)N12)Nc1ccccc1` (centres undefined), the survival is inactive: 91%.
In the case of `O=C(NCc1noc2ccccc12)N1CCN(c2ccccc2F)CC1`, the survival is inactive: 85%.
Under `COc1cccc(OCc2nc3ccccc3n2C)c1` stands inactive: 84%.
As to `O=C(CCn1cnc2onc(-c3ccc(F)cc3)c2c1=O)N1CCN(c2ccccc2)CC1`, the survival is inactive: 75%.
Under `CCOc1cccc2cc(-c3nc(-c4ccc(Cl)cc4)c(C)s3)c(=O)oc12` stands inactive: 79%; under `COc1ccc(Cn2c(CCC(=O)Nc3cccc(Cl)c3)nc3cccnc32)cc1`, inactive: 132%; under `Cc1nc(N2CCOCC2)c2c(C(=O)N3CCN(c4ccc(Cl)cc4)CC3)c(C)oc2n1`, inactive: 79%.
Under `COc1ccc(-c2ccc(NS(=O)(=O)c3ccccc3Cl)cc2)nn1` stands inactive: 84%; under `COc1ccc(-c2nsc(NC(=O)c3cccc(OC)c3)n2)cc1`, inactive: 84%.
Regarding `CCN(CC)CCNC(=O)c1ccc2c(=O)n3nc(Nc4cccc(Cl)c4C)sc3nc2c1`, the survival is inactive: 153%.
With `CCOc1ccc(C(c2c(C)[nH]n(-c3ccccc3)c2=O)c2c(C)[nH]n(-c3ccccc3)c2=O)cc1OC` the figure was inactive: 71%; with `CCc1ccc(-c2cn3c(n2)sc2cc(C(=O)NCCCc4ccccc4)ccc23)cc1`, inactive: 79%.
With `CCc1nn2c(=O)cc(COC(=O)c3cccs3)nc2s1` the figure was inactive: 89%; with `CCOc1ccccc1CNC(=O)c1ccc2nc(CCc3ccccc3)oc2c1`, inactive: 84%.
With `CC(Oc1ccccc1)C(=O)Nc1ccc(C(=O)OCc2cc(=O)n3ccsc3n2)cc1` (centres undefined) the figure was inactive: 72%; with `CC(=O)N/N=C/c1cc(C(C)C)cc(/C=N/NC(C)=O)c1O`, inactive: 116%.
As for `Cc1cccc(C(=O)NCC(=O)OCc2cc(=O)n3nc(C)sc3n2)c1`, the survival is inactive: 84%.
With `N#Cc1nc(/C=C/c2ccc(F)cc2)oc1N1CCCCC1`, the survival is inactive: 107%.
On to `COC(=O)c1ccc(CN(Cc2ccc(OC)c(OC)c2)S(=O)(=O)c2ccc(F)c(C(=O)Nc3cc(C)ccc3C)c2)cc1`, for which the survival was inactive: 128%.
Regarding `CCOc1ccccc1NC(=O)CN1Cc2ccccc2C1=O`, the survival is inactive: 70%.
With `Cc1cc(-c2ccccc2)nc2cc(C(=O)Nc3cc(C(F)(F)F)ccc3Cl)nn12` the figure was inactive: 72%.
Under `COc1ccc(CNC(=O)c2ccc3c(Cl)c4c(nc3c2)CCCC4)c(OC)c1` stands inactive: 117%.
Turning to `Cc1cccc(Nc2cc(C)nc3nc(Cc4ccc(Cl)cc4)nn23)c1`, the survival was inactive: 42%.
Regarding `CCOC(=O)c1ccc(NC(=O)Cn2cc(S(=O)(=O)Cc3ccccc3F)c3ccccc32)cc1`, the survival is inactive: 75%.
With `CCCOc1ccccc1C(=O)Nc1ccc(-c2nc3ccc(C)cc3s2)cc1` the figure was inactive: 43%; with `Cc1ccc(Cn2cc3c(n2)-c2c(oc(C(=O)Nc4ccc(F)cc4F)c2C)CC3)cc1`, inactive: 85%.
Under `Cc1nc(SCC(=O)Nc2ccc(Cl)cc2C(F)(F)F)[nH]c(=O)c1Cc1ccccc1` stands inactive: 60%; under `CCn1cc(C(=O)NCCCOC(C)C)c(=O)c2cc(S(=O)(=O)N(C)C3CCCCC3)ccc21`, inactive: 140%.
Consider `CCN(Cc1ccccc1)Cc1c(O)ccc2c(=O)c(-c3ccccc3Cl)coc12`, for which the survival is inactive: 73%.
Take `O=C(O)CN1Cc2ccccc2C1`: the survival is inactive: 110%.
With `COc1cc(OC)c(NC(=O)CSCc2nc(-c3ccc(OC)c(OC)c3)no2)cc1Cl` the figure was inactive: 80%; with `CC(=O)c1cccc(NC(=O)c2ccc3c(c2)c(C)c(C)n3Cc2ccc(Cl)cc2)c1`, inactive: 105%.
